The text below walks through data of the supplement of paper PMC11417369.

The other results are listed elsewhere or left out.

For this experiment, the system named is PF3D7_0420300 AP2 domain 1 (GST-tagged). Nature of the experiment: gcPBM binding intensity (ln(normalized median fluorescence intensity)); higher = stronger DNA binding. Put shortly:
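An Agilent 4 × 180k array of primer-extended double-stranded 36-bp intergenic genomic probes, with negative controls, was incubated for 1 h with GST-tagged P. falciparum DNA-binding domains expressed in E. coli. Alexa488 anti-GST antibody detected bound protein, scanned at 488 nm. Binding intensity is the highest Masliner-normalised natural-log median intensity across replicate spots of either probe orientation.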
Turning to “TTCCTAAGAATAATCAGTACACATAAAAAGAACATA [XGTACX_site7861]”, the “gcPBM binding intensity (ln)” value worked out at 9.43.

Turning to “ACTATATATTTAATATGTACACATATTTCTGTCGAT [XGTACX_site6878]”, the “gcPBM binding intensity (ln)” value amounted to 9.32. The figure for “ATATATTTGATTTACACACTTACAATGTATATAAAT [CACACA_site2993]” is 9.52; for “AAAGAAATAAGGTGCACACATATACAGATATATATA [CACACA_site4399]” it is 9.66; for “CTCTTTTTTTGCAAAAGTACAAATGGGGATATATTT [XGTACX_site5813]” it is 9.29. The figure for “TTACATATTTTTTAACGTACATAAATATATATGTAT [XGTACX_site8406]” is 9.17; for “TTAAATAAAAAAATAACACACATATAAATATATATG [CACACA_site3175]” it is 9.38; for “ACTCAAACCTTTAGAGTGCAAAAAAAAAAAAAAAAA [GTGCAC_site9952]” it is 8.51. Then “TTGTAAAAATTAATACATATATATATATATATATAT [CACACA_negctrl_site6]”, with 8.99; and “TTGTTTCTTAAATTATTTATTTTATATTAAAAAAAA [XGTACX_negctrl_site224]”, with 8.73. With “AAGAAAATGAAAAAGTAAAAACATATATTAAATATA [TGCATGCA_negctrl_site123]”, the “gcPBM binding intensity (ln)” value was 9.27. The figure for “TCGTAGTTACTATGGCAAGAAAATAAACGGTCTTGT [GTGCAC_negctrl_site684]” is 9.31; for “ATTCGTAGTTTTATGAATTAATATAATAAAAATTAA [XGTACX_negctrl_site181]” it is 8.77; for TAAAAAACAAAACAGGTGCTATATAATTTTCATTTT it is 9.35. Take “ATAGAATAATATTGTAGTACTAAAAATATTCATTTT [XGTACX_site6447]”: the “gcPBM binding intensity (ln)” value turned out to be 9.17. Then “TCTATATATAAATATAAATATATATATATAATGTTA [TGCATGCA_negctrl_site92]”, with 8.99; and “ATTATAAATTAAAATACACACATATATACATAATAT [CACACA_site7337]”, with 9.66. The figure for “AAGTATATACATATATGTACACATTGTCAGATAGAA [XGTACX_site1236]” is 9.2; for “TCTTTTTGTTCGTGTACACACATGAAATTTATAAAA [CACACA_site1619]” it is 9.33; for “ATATATATATATATATGTACATATTTTTAATTATAA [XGTACX_site7444]” it is 9.02.

For “ATATTTTCTTTTTAAAGTACATATTTGATTACAATA [XGTACX_site8414]”, the “gcPBM binding intensity (ln)” value was determined as 9. In the case of “GAAAAAAAAGAAAAAACACACATATGATATATTTAT [CACACA_site1524]”, the “gcPBM binding intensity (ln)” value was found to be 9.31. The figure for “CATGTAATATTAAACACACACTCATATAACACAATA [CACACA_site65]” is 9.75; for “ATATATATTTATATATATATATATATATATATGTAT [GTGCAC_negctrl_site220]” it is 8.96.

For the sequence “AAAGAAAAAAAAAACACACACACACGCATTCAATAT [CACACA_site6169]”, the “gcPBM binding intensity (ln)” value stood at 10.1. The figure for “TAGTTATTTATATACACACACATACAGACAAATAAA [CACACA_site7577]” is 9.97; for “TCTTAGATTATTTATTGTACTTATGCTTAAAAAATT [XGTACX_site3639]” it is 9.13. Then “GTCCAATAAGGAAGAGTGCAAAAATTAAATAATATA [GTGCAC_site9751]”, with 9.16; and “TCTATAAAGTTCCATACATGCGCCATCATTTATATT [TGCATGCA_site195]”, with 9.6. Then “ATTATAATTATTTTGTTGCACTATTTTTGTAGGCCA [GTGCAC_site9734]”, with 9.25; and “GAATACACCACGCACACACACTTGAGAAAAAATAAA [CACACA_site7747]”, with 9.74. As to “GTGTACATAGGTATAGCACACACAAATGTAGGTATT [CACACA_site9339]”, the “gcPBM binding intensity (ln)” value was determined as 9.63. The figure for “AAATAAAATTATAACTGTACGTTGTATGAAATAATG [XGTACX_site5462]” is 9.31. “TGTATATATATATAAAGTACATATAATATATATTTG [XGTACX_site5411]”: the “gcPBM binding intensity (ln)” value was determined as 9.05. Then “CTGTTTAAAATATAAACACACATTGTTTGCTTTAGA [CACACA_site1301]”, with 9.23.

On to “ATTTTTTTACTGCAACCATATTTTTCCCTTTTATTC [CACACA_negctrl_site1282]”, for which the “gcPBM binding intensity (ln)” value was found to be 9.57. Then “GTATACACATATATATGTACTTAATTATTTTATGTC [XGTACX_site6707]”, with 9.33; and “CAAAGGGAAATTAACACACACATATATATATATATA [CACACA_site2453]”, with 9.63. Take “GTCATAAAAACATATACACACTTGAAATATAAAAAT [CACACA_site5315]”: the “gcPBM binding intensity (ln)” value was found to be 9.59. For the sequence “AAACATGATTATTATAGTACAATTATAATTATTATA [XGTACX_site2590]”, the “gcPBM binding intensity (ln)” value turned out to be 9.05.

Regarding “TTTATAAAAATATACACACATACAAATATGCATATA [CACACA_site712]”, the “gcPBM binding intensity (ln)” value turned out to be 9.44.

For “GAAAAAAGGAAATAAAGAAAAAAAAAAATGAAATAT [XGTACX_negctrl_site318]”, the “gcPBM binding intensity (ln)” value was determined as 9.45. In the case of “TTTATATGTATTAAGTGTACACATATAATCTATCTT [XGTACX_site4922]”, the “gcPBM binding intensity (ln)” value amounted to 9.35. Consider “TAATAATATATATGAAGTACAATAACTTTTTGTTTT [XGTACX_site292]”, for which the “gcPBM binding intensity (ln)” value worked out at 9.18.
